Experiment [1] addresses endogenous CLC-1 channel of rat skeletal muscle (rat (endogenous in skeletal muscle)) (UniProt P35524). Put plainly: co-IP; rat skeletal muscle (vastus lateralis) lysate in T-PER reagent; anti-CLC-1 antibody 2 hrs at 4 °C, then protein A sepharose beads 16 hrs at 4 °C; immunoblot.
In experiment [2] the target is Myc-tagged human CLC-1 chloride channel (human) (UniProt P35523). Put plainly: co-IP; HEK293T cells co-transfected, 10 uM MG132 for 24 hrs; lysed in IP buffer with 1% Triton X-100, 100 mM NaCl, pH 7.5; protein G sepharose beads pre-coated with anti-Myc or anti-HA antibody, 16 hrs at 4 °C; immunoblot. On the technique in general: In western blotting, separated proteins are transferred to a membrane and probed.

By UniProt entry, the sequences of proteins in these tests, tags left out.
UniProt P35524: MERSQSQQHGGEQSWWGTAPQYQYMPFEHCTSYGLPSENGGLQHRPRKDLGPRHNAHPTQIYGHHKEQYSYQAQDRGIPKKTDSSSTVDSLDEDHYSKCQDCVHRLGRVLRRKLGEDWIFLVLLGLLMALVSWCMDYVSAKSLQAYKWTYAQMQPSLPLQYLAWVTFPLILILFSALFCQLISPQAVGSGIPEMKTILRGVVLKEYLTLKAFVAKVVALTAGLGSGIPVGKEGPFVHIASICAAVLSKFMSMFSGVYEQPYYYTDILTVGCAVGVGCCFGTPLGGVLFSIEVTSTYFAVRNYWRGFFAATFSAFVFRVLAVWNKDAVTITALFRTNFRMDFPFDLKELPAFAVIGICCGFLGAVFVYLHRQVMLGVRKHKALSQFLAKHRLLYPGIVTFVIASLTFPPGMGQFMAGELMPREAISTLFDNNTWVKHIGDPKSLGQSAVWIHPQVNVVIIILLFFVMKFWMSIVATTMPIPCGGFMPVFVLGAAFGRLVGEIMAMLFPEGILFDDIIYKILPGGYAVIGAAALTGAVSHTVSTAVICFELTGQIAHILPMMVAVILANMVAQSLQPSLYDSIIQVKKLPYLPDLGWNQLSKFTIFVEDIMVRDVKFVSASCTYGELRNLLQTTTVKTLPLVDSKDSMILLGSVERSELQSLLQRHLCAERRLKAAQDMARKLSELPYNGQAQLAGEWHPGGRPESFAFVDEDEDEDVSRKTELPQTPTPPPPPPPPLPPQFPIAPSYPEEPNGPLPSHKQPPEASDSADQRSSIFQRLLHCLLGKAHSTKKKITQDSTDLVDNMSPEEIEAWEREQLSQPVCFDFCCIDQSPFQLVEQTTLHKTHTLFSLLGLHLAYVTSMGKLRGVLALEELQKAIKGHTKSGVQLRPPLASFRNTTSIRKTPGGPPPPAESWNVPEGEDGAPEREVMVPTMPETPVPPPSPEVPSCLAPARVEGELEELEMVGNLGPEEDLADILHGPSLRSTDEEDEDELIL
UniProt P35523: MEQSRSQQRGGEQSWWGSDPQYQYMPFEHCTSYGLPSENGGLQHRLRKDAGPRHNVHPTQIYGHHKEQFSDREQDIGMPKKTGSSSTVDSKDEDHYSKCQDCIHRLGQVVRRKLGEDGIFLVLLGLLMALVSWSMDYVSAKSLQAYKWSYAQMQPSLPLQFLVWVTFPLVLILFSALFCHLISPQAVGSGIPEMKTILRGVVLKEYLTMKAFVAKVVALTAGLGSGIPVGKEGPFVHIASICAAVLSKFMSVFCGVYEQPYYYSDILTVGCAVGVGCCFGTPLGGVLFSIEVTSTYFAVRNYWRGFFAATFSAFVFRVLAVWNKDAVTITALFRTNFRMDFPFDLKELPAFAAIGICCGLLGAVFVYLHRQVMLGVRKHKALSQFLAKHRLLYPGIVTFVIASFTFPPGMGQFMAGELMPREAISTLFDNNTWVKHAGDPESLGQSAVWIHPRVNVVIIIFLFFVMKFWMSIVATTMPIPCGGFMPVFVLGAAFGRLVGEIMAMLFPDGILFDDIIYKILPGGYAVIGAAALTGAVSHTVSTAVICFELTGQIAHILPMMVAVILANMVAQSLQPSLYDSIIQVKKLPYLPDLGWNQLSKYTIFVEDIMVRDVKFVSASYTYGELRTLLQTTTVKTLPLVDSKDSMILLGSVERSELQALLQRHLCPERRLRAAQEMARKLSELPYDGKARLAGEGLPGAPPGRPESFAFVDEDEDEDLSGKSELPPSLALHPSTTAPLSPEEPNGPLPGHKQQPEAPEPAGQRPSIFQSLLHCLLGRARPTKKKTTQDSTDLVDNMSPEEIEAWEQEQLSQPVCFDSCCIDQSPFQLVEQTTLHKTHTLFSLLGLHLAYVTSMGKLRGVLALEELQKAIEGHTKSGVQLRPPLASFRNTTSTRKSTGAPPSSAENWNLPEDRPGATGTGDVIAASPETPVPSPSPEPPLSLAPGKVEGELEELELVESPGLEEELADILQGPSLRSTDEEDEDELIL
UniProt Q56AP7: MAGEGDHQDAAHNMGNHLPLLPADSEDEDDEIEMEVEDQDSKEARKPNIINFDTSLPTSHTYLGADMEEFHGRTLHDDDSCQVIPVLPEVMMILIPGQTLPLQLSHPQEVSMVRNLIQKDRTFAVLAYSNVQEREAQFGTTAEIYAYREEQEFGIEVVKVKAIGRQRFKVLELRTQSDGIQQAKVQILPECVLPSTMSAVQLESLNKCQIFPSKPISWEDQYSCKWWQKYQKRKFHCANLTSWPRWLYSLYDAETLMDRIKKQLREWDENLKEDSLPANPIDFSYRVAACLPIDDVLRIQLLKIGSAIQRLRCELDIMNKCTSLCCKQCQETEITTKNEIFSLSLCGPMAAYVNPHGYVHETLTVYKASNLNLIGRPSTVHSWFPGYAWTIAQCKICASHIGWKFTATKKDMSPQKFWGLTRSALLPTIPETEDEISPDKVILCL
UniProt Q13619: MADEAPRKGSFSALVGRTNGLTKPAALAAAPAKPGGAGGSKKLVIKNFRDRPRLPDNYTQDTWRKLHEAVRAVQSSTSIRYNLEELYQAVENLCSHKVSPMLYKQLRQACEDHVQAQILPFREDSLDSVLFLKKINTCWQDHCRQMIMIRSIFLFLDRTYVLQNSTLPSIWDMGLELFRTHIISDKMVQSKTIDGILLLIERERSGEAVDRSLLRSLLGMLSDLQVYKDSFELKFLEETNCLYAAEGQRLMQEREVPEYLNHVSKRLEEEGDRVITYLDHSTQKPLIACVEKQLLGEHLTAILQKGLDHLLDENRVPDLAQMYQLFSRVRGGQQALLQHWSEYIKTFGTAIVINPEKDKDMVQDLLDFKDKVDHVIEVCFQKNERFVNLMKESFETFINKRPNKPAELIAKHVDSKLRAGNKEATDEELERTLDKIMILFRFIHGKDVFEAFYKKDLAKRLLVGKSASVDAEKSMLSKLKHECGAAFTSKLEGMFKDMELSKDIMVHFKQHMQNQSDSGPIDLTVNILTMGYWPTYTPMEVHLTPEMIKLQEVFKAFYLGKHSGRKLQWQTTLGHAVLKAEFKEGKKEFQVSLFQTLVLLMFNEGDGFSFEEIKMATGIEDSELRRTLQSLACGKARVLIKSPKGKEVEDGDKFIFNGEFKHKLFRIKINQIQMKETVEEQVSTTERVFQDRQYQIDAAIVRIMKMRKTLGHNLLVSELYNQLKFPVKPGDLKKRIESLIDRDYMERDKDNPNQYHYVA
UniProt Q13620: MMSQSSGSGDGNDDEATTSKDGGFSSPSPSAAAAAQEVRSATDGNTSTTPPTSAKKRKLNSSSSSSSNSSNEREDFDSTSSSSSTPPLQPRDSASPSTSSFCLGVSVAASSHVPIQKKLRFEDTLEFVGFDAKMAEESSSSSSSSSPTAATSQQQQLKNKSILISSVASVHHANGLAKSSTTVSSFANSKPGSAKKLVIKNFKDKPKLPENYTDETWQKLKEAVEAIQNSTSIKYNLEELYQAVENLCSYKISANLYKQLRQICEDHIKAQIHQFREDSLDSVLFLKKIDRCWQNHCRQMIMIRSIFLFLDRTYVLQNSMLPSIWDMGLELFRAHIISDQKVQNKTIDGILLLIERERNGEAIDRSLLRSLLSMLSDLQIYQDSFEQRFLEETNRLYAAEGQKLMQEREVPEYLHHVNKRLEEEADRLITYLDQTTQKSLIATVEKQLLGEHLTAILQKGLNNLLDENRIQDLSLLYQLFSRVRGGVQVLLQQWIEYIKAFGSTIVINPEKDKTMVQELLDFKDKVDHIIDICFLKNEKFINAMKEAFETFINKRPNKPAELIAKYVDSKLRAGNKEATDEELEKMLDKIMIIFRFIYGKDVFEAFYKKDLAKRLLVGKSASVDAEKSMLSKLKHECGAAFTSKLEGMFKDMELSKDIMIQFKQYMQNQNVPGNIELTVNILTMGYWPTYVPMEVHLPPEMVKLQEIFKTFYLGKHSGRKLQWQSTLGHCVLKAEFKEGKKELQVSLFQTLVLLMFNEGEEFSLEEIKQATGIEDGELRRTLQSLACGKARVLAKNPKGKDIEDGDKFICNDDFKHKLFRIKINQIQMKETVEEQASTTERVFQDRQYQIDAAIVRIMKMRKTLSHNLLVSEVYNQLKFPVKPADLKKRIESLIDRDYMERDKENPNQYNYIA
UniProt Q16531: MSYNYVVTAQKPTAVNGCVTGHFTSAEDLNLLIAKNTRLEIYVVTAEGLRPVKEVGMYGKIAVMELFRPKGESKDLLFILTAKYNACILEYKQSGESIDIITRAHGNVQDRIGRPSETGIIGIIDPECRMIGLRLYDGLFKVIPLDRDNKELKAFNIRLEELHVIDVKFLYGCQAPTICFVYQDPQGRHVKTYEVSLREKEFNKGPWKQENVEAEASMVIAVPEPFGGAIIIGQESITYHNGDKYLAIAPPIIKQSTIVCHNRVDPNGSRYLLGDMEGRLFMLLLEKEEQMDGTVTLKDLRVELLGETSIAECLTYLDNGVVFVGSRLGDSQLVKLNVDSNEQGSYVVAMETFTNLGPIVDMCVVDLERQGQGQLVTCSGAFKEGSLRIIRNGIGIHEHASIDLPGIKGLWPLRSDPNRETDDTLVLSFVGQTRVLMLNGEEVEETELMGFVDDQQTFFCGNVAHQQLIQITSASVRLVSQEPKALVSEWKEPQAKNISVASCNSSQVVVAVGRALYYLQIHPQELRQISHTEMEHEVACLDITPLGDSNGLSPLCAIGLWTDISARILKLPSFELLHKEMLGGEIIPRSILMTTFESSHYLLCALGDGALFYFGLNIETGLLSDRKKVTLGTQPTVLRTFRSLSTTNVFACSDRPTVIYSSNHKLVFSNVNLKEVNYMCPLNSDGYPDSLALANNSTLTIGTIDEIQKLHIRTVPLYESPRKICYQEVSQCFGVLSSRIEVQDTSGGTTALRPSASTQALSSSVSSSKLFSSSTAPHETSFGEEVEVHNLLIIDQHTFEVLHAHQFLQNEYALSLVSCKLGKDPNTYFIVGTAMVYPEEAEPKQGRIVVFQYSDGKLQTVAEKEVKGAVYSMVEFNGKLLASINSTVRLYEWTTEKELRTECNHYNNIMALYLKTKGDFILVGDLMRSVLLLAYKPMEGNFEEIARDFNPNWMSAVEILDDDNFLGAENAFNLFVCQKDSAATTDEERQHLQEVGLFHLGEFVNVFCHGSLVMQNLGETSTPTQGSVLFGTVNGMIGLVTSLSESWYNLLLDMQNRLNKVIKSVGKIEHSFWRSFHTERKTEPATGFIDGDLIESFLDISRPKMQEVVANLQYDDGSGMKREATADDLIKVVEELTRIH
UniProt Q9ESW0: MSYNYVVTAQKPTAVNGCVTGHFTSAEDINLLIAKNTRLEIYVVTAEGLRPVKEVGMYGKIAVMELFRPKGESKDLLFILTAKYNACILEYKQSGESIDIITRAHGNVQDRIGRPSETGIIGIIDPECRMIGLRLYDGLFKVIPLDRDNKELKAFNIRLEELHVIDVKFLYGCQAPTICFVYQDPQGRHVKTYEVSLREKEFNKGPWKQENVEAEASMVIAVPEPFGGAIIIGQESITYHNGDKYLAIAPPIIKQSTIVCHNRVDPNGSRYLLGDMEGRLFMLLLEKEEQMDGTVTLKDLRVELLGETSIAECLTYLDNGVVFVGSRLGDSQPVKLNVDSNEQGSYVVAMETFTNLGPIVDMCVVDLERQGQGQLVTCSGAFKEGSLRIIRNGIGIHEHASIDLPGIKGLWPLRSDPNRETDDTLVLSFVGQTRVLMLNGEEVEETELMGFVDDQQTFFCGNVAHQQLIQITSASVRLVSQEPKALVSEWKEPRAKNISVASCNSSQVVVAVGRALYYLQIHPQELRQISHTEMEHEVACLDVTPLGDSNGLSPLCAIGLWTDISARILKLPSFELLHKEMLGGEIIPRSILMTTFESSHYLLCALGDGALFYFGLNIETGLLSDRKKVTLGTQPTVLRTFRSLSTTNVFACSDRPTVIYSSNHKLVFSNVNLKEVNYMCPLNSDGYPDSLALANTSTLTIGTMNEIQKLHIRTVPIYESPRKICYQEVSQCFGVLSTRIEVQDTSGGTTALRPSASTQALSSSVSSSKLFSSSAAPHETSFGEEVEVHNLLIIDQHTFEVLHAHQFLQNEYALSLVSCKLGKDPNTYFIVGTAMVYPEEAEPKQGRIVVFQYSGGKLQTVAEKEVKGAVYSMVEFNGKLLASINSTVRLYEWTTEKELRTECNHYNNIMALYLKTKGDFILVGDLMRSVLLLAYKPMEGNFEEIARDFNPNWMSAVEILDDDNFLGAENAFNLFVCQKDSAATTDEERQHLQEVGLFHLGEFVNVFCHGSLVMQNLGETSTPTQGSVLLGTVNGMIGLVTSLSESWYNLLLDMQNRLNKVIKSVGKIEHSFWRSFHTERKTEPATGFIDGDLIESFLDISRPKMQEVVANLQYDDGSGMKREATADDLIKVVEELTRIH

Experiment [3] addresses HA-tagged rat cereblon (rat) (UniProt Q56AP7). The description is as above.
Experiment [4] deals with Myc-tagged human cullin 4A (human) (UniProt Q13619). Described as above.
For experiment [5], the target named is Myc-tagged human cullin 4B (human) (UniProt Q13620). The description is as above.

These are yes or no findings as the source states them, for the method shown. Binding seen in cells or lysates may run through a third protein. Some entries that bind do so weakly or less than the wild type.

Regarding “endogenous CUL4B of rat skeletal muscle (from UniProt D3ZK73 1-971)”, in experiment [1], the binding entry is “binds”.

In the case of “Flag-tagged human damage-specific DNA binding protein 1 (from UniProt Q16531 1-1140)”, the binding result in experiment [2] is “binds”.

Regarding “Myc-tagged human CLC-1 chloride channel (from UniProt P35523 1-988)”, the binding result in experiment [3] is listed as “binds”.

As for “HA-tagged human CLC-1 chloride channel (from UniProt P35523 1-988)”, the binding result in experiment [4] and in experiment [5] was “binds” each time.

“endogenous cereblon of rat skeletal muscle (from UniProt Q56AP7 1-445)”: the binding result in experiment [1] is given as “binds”.

“endogenous DDB1 of rat skeletal muscle (from UniProt Q9ESW0 1-1140)”: the binding result in experiment [1] was “binds”.

Consider “Flag-tagged human damage-specific DNA binding protein 2 (from UniProt Q92466 1-427)”, for which the binding entry in experiment [2] is on record as “no binding”.
